Measurements as given in paper PMC11995724, “Antibiotic target discovery by integrated phenotypic and activity-based profiling of electrophilic fragments” (Cell chemical biology, 2025).
Hit rate of the full screen: of about 3,200 compounds, about 110 (3.4%) showed an effect of 50% or more. Some of the results follow.

system: T1, V. cholerae SAD30; set-up: species or system S. aureus MSSA476 (TSB) or V. cholerae SAD30 (LB); 384-well bacterial growth screen at 25 uM, OD600 relative to DMSO control; conditions: relative growth, OD600, LB; 25 µM; inhibitor
T1 construct: SAD30

Compound | % of control remaining
Cn1c(N)c(C(=O)CCl)c(=O)n(C)c1=O [10-E14, 6-amino-5-(2-chloroacetyl)-1,3-dimethyl-1,2,3,4-tetrahydropyrimidine-2,4-dione] | 103.331%
CCNC(=O)C(C#N)=Cc1c(N2CCOCC2)nc2ccccn2c1=O [9-O06, 2-cyano-N-ethyl-3-[2-(morpholin-4-yl)-4-oxo-4H-pyrido[1,2-a]pyrimidin-3-yl]prop-2-enamide] | 97.0088%
CC(Cl)C(=O)NC(=O)NC12CC3CC(CC(C3)C1)C2 (centres unmarked) [6-D10, 1-(adamantan-1-yl)-3-(2-chloropropanoyl)urea] | 77.8083%
CCC1SC(=C(C#N)C(=O)NC)N(c2ccc(Cl)cc2)C1=O (centres unmarked) [8-L15, 2-[3-(4-chlorophenyl)-5-ethyl-4-oxo-1,3-thiazolidin-2-ylidene]-2-cyano-N-methylacetamide] | 72.9436%
CC(Cl)C(=O)NC(=O)NCc1cccs1 (centres unmarked) [6-E05, 3-(2-chloropropanoyl)-1-[(thiophen-2-yl)methyl]urea] | 91.6106%
CC(Cl)C(=O)NC1(c2noc(C(F)F)n2)CCC1 (centres unmarked) [6-B15, 2-chloro-N-{1-[5-(difluoromethyl)-1,2,4-oxadiazol-3-yl]cyclobutyl}propanamide] | 95.0991%
O=C(CCl)NC(c1cc(F)ccc1F)C(F)F (centres unmarked) [7-F22, 2-chloro-N-[1-(2,5-difluorophenyl)-2,2-difluoroethyl]acetamide] | 92.5161%
O=C(CCl)NCC1CCN(C(=O)Cc2ccccc2)C1 (centres unmarked) [7-B08, 2-chloro-N-{[1-(2-phenylacetyl)pyrrolidin-3-yl]methyl}acetamide] | 86.3043%
C=CC(=O)N1CC(C)OC2(CCOCC2)C1 (centres unmarked) [3-I12, 1-{2-methyl-1,9-dioxa-4-azaspiro[5.5]undecan-4-yl}prop-2-en-1-one] | 81.8563%
Cc1ccccc1CC(C)NC(=O)CCl (centres unmarked) [6-C06, 2-chloro-N-[1-(2-methylphenyl)propan-2-yl]acetamide] | 89.7905%
C=CC(=O)NC(C)c1nnnn1C (centres unmarked) [3-A15, N-[1-(1-methyl-1H-1,2,3,4-tetrazol-5-yl)ethyl]prop-2-enamide] | 113.615%
C=CC(=O)N1CCC(Cn2cnnc2)CC1 [3-P09, 1-{4-[(4H-1,2,4-triazol-4-yl)methyl]piperidin-1-yl}prop-2-en-1-one] | 109.557%
O=C(CCl)NCc1cc([N+](=O)[O-])ccc1O [4-A05, 2-chloro-N-[(2-hydroxy-5-nitrophenyl)methyl]acetamide] | 105.586%
CC(Cl)C(=O)N[C@H](CC(N)=O)c1cccc(Cl)c1 (stereo partly drawn) [7-O09, (3R)-3-(3-chlorophenyl)-3-(2-chloropropanamido)propanamide] | 79.5639%
C=CCNC(=O)C(C#N)=Cc1c(C)nn(-c2ccc(F)cc2)c1Cl [9-L07, 3-[5-chloro-1-(4-fluorophenyl)-3-methyl-1H-pyrazol-4-yl]-2-cyano-N-(prop-2-en-1-yl)prop-2-enamide] | 88.4432%
Cc1cc(-n2c(C)cc(C=C(C#N)C(=O)NC3CCCC3)c2C)no1 [9-J15, 2-cyano-N-cyclopentyl-3-[2,5-dimethyl-1-(5-methyl-1,2-oxazol-3-yl)-1H-pyrrol-3-yl]prop-2-enamide] | 77.0224%
C=CC(=O)N1CCC(C(=O)Nc2[nH]nc(C(F)(F)F)c2C)CC1 [1-O04, N-[4-methyl-3-(trifluoromethyl)-1H-pyrazol-5-yl]-1-(prop-2-enoyl)piperidine-4-carboxamide] | 93.423%
CC(Cl)C(=O)N(C(C)CS(C)(=O)=O)C1CC1 (centres unmarked) [6-L17, 2-chloro-N-cyclopropyl-N-(1-methanesulfonylpropan-2-yl)propanamide] | 86.757%
CCC(C)n1nccc1NC(=O)C(C)Cl (centres unmarked) [6-A20, N-[1-(butan-2-yl)-1H-pyrazol-5-yl]-2-chloropropanamide] | 95.4024%
O=C(CCl)NCC(=O)Nc1ccc(F)c(F)c1F [4-D18, 2-chloro-N-{[(2,3,4-trifluorophenyl)carbamoyl]methyl}acetamide] | 103.515%
O=C(CCl)c1c(-c2ccc(F)cc2)[nH]c2ccccc12 [10-P04, 2-chloro-1-[2-(4-fluorophenyl)-1H-indol-3-yl]ethan-1-one] | 95.8504%
N#CC(=Cc1ccc(N2CCOCC2)cc1)C(=O)Nc1ccccc1F [9-B03, 2-cyano-N-(2-fluorophenyl)-3-[4-(morpholin-4-yl)phenyl]prop-2-enamide] | 97.5527%
CCOc1cc(C=C(C#N)C(=O)Nc2cccc(C)c2)ccc1O [9-G06, 2-cyano-3-(3-ethoxy-4-hydroxyphenyl)-N-(3-methylphenyl)prop-2-enamide] | 85.0442%
O=C(CCl)Nc1ccccc1OC(F)F [4-N09, 2-chloro-N-[2-(difluoromethoxy)phenyl]acetamide] | 109.554%
CC(Cl)C(=O)N1CCCC(CC(=O)OC(C)(C)C)CC1 (centres unmarked) [6-P18, tert-butyl 2-[1-(2-chloropropanoyl)azepan-4-yl]acetate] | 90.8522%
C=CC(=O)NCC1CCOC1 (centres unmarked) [1-H08, N-[(oxolan-3-yl)methyl]prop-2-enamide] | 115.064%
N#CC(C(=O)CCl)=C1Nc2ccccc2S1 [10-J04, 4-chloro-2-(2,3-dihydro-1,3-benzothiazol-2-ylidene)-3-oxobutanenitrile] | 96.0062%
CCOC(=O)c1c(C)[nH]c(C(=O)CCl)c1C [10-J20, ethyl 5-(2-chloroacetyl)-2,4-dimethyl-1H-pyrrole-3-carboxylate] | 103.799%
Cc1ccc(NC(=O)N2CCN(C(=O)C=CCN(C)C)CC2)cc1 [10-H16, 4-[4-(dimethylamino)but-2-enoyl]-N-(4-methylphenyl)piperazine-1-carboxamide] | 98.8116%
